Experimental data: the supplement of paper PMC12217912
The other results are listed elsewhere or left out. Sequences were assembled here from the parent chain. Values near 0.05 are background.

B1: TEV protease; numbered along this chain (parent)
chain: MGESLFKGPRDYNPISSSICHLTNESDGHTTSLYGIGFGPFIITNKHLFRRNNGTLVVQSLHGVFKVKDTTTLQQHLVDGRDMIIIRMPKDFPPFPQKLKFREPQREERICLVTTNFQTKSMSSMVSDTSCTFPSGDGIFWKHWIQTKDGQCGSPLVSTRDGFIVGIHSASNFTNTNNYFTSVPKNFMELLTNQEAQQWVSGWRLNADSVLWGGHKVFMVKPEEPFQPVKEATQL

Variants of: B1
Assay: raw area under fraction-flipped curve 0-4 h after induction (AUC4h, not background-subtracted), DNA-recorder readout of cleavage of the substrate (dimensionless); higher = more cleavage of the substrate by the protease variant
Conditions: temperature: 34 °C; time window: 0-4 h after rhamnose induction
Experimental: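 In vivo DNA recorder in E. coli TOP10(DE3) ΔrhaA at 34 °C. Each TEVp single-site mutant (parent TEVp 0) is paired with a single-site variant of the 7-mer TEVs (canonical ENLYFQ|S). The substrate sits between flexible linkers in a Bxb1-sfGFP-TEVs-SsrA fusion, so cleavage stabilises Bxb1 and speeds flipping of a recombination array, read by NGS. The value is the raw area under the fraction-flipped curve over 0-4 h after rhamnose induction (AUC4h), with ≥20 reads per time point. It is not background-subtracted; inactive controls average about 0.047.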
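Note: Bxb1 expression induced with 0.2% (w/v) L-rhamnose at OD600 near 0.5, cultures sampled hourly, flipped fraction per protease–substrate barcode pair counted by paired-end Illumina sequencing.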

Variant | area with substrate ENLYCQS | area with substrate ENLYDQS | area with substrate ENLYEQS | area with substrate ENLYGQS | area with substrate ENLYHQS | area with substrate ENLYKQS | area with substrate ENLYNQS | area with substrate ENLYPQS | area with substrate ENLYRQS | area with substrate ENLYSQS | area with substrate ENLYVQS | area with substrate ENLYWQS | area with substrate ENLYIQS | area with substrate ENLYQQS | area with substrate ENLYMQS | area with substrate ENLYTQS | area with substrate ENLYYQS | area with substrate ENLYLQS
MGESLFKGPRDYNPISSSICHLTNESDGHTTSLYGIGFGPFIITNKHLFRRNNGTLVVQSLHGVFKVKDTTTLQQHLVDGRDMIIIRMPKDFPPFPQKLKFREPQREERICLVTTNFQTKSMSSMVSDTSCTFPSGDGIFWKHWIQTKDGQCGSPLVSTRDSFIVGIHSASNFTNTNNYFTSVPKNFMELLTNQEAQQWVSGWRLNADSVLWGGHKVFMVKPEEPFQPVKEATQL [G162S] | 0.107 | 0.0652 | 0.0542 | 0.0595 | 0.072 | 0.0619 | 0.0616 | 0.0712 | 0.0522 | 0.0696 | 0.104 | 0.0761 |  |  |  |  |  | 
MGESLFKGPRDYNPISSSICHLTNESDGHTTSLYGIGFGPFIITNKHLFRRNNGTLVVQSLHGVFKVKDTTTLQQHLVDGRDMIIIRMPKDFPPFPQKLKFREPQREMRICLVTTNFQTKSMSSMVSDTSCTFPSGDGIFWKHWIQTKDGQCGSPLVSTRDGFIVGIHSASNFTNTNNYFTSVPKNFMELLTNQEAQQWVSGWRLNADSVLWGGHKVFMVKPEEPFQPVKEATQL [E108M] | 0.0733 | 0.0525 | 0.0728 | 0.0708 | 0.0692 | 0.0576 | 0.0583 | 0.0754 | 0.0538 | 0.0671 | 0.121 |  | 0.0873 | 0.0491 |  |  |  | 
MGESLFKGPRDYNPISSSICHLTNESDGHTTSLYGIGFGPFIITNKHLFRRNNGTLVVFSLHGVFKVKDTTTLQQHLVDGRDMIIIRMPKDFPPFPQKLKFREPQREERICLVTTNFQTKSMSSMVSDTSCTFPSGDGIFWKHWIQTKDGQCGSPLVSTRDGFIVGIHSASNFTNTNNYFTSVPKNFMELLTNQEAQQWVSGWRLNADSVLWGGHKVFMVKPEEPFQPVKEATQL [Q59F] | 0.0801 | 0.0713 | 0.0682 |  | 0.0702 | 0.085 | 0.0548 | 0.0721 | 0.0583 | 0.0659 |  |  | 0.107 | 0.0582 | 0.0808 | 0.0716 | 0.0811 | 
MGESLFKGPRDYNPISSSICHLTNESDGHTTSLYGIGFGPFIITNKHLFRRNNGTLVVQSLHGVFKVKDTTTLQQHLVDGRDMIIIRMPKDFPPFPQKLKFREPQREERICLVTTNFQTKSMSSMVSDTSCQFPSGDGIFWKHWIQTKDGQCGSPLVSTRDGFIVGIHSASNFTNTNNYFTSVPKNFMELLTNQEAQQWVSGWRLNADSVLWGGHKVFMVKPEEPFQPVKEATQL [T132Q] | 0.0709 |  | 0.0233 | 0.0523 | 0.0532 |  |  | 0.0529 |  | 0.0743 |  | 0.0738 | 0.0855 | 0.076 |  |  |  | 0.0726
MGESLFKGPRDYNPISSSICHLTNESDGHTTSLYGIGFGPFIIHNKHLFRRNNGTLVVQSLHGVFKVKDTTTLQQHLVDGRDMIIIRMPKDFPPFPQKLKFREPQREERICLVTTNFQTKSMSSMVSDTSCTFPSGDGIFWKHWIQTKDGQCGSPLVSTRDGFIVGIHSASNFTNTNNYFTSVPKNFMELLTNQEAQQWVSGWRLNADSVLWGGHKVFMVKPEEPFQPVKEATQL [T44H] | 0.0514 | 0.0199 | 0.0536 | 0.0622 |  | 0.0523 | 0.0899 |  | 0.0536 |  |  | 0.0723 | 0.0584 | 0.0424 | 0.0438 | 0.0573 |  | 0.049
MGESLFKGPRDYNGISSSICHLTNESDGHTTSLYGIGFGPFIITNKHLFRRNNGTLVVQSLHGVFKVKDTTTLQQHLVDGRDMIIIRMPKDFPPFPQKLKFREPQREERICLVTTNFQTKSMSSMVSDTSCTFPSGDGIFWKHWIQTKDGQCGSPLVSTRDGFIVGIHSASNFTNTNNYFTSVPKNFMELLTNQEAQQWVSGWRLNADSVLWGGHKVFMVKPEEPFQPVKEATQL [P14G] | 0.0745 | 0.0536 | 0.0585 | 0.0524 | 0.0799 | 0.068 | 0.0793 | 0.0701 | 0.082 | 0.059 | 0.142 | 0.0743 | 0.122 | 0.0636 |  | 0.0997 |  | 0.113
MGESLFKGPRDYNDISSSICHLTNESDGHTTSLYGIGFGPFIITNKHLFRRNNGTLVVQSLHGVFKVKDTTTLQQHLVDGRDMIIIRMPKDFPPFPQKLKFREPQREERICLVTTNFQTKSMSSMVSDTSCTFPSGDGIFWKHWIQTKDGQCGSPLVSTRDGFIVGIHSASNFTNTNNYFTSVPKNFMELLTNQEAQQWVSGWRLNADSVLWGGHKVFMVKPEEPFQPVKEATQL [P14D] | 0.0831 | 0.0685 | 0.0654 | 0.0932 | 0.066 | 0.0793 | 0.0821 | 0.0727 | 0.07 | 0.0593 | 0.106 | 0.0856 | 0.136 | 0.0354 | 0.0897 | 0.0662 | 0.079 | 0.0843
MGESLFKGPRDYYPISSSICHLTNESDGHTTSLYGIGFGPFIITNKHLFRRNNGTLVVQSLHGVFKVKDTTTLQQHLVDGRDMIIIRMPKDFPPFPQKLKFREPQREERICLVTTNFQTKSMSSMVSDTSCTFPSGDGIFWKHWIQTKDGQCGSPLVSTRDGFIVGIHSASNFTNTNNYFTSVPKNFMELLTNQEAQQWVSGWRLNADSVLWGGHKVFMVKPEEPFQPVKEATQL [N13Y] | 0.0811 | 0.0366 | 0.0758 | 0.0604 | 0.0444 | 0.08 |  | 0.0788 | 0.0737 | 0.0746 |  | 0.0565 | 0.137 |  | 0.0628 |  | 0.0638 | 0.0744
MGESLFKGPRDYNPISSSICHLTNESDGHTTSLYGIGFGPFIITNKHLFRRNNGTLVVQSLHGVFKVKDTTTLQQHLVDGRDMIIIRMPKDFPPFPQKLKFREPQREERICLVTTNFQTKSMSSMVSDTSCTFPSGDGIFWKHWIQTKDGQCGSPLVSTRDGFIVGIHSASNFTNTNNYFTSVPKNFMELLTTQEAQQWVSGWRLNADSVLWGGHKVFMVKPEEPFQPVKEATQL [N193T] | 0.0837 | 0.0829 | 0.064 |  | 0.0905 | 0.0636 |  |  |  | 0.0696 | 0.105 | 0.0837 | 0.118 | 0.0641 | 0.09 |  |  | 0.0704
